In publication PMC4336329 (PLoS ONE, 2015):
Hit rate of the full screen: of about 310,000 compounds, about 14,000 (4.5%) showed an effect of 50% or more. The effect is printed as a negative number. The list shows a part of the results.

Each compound was assayed against human ether-à-go-go-related gene (hERG) potassium channel (human, UniProt Q12809) (assay: primary screen, population patch clamp on CHO cells stably expressing hERG).
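Also: peak tail current of the secondary pulse compared with the same well before compound.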

Chain of human ether-à-go-go-related gene (hERG) potassium channel (Q12809 whole entry, looked up): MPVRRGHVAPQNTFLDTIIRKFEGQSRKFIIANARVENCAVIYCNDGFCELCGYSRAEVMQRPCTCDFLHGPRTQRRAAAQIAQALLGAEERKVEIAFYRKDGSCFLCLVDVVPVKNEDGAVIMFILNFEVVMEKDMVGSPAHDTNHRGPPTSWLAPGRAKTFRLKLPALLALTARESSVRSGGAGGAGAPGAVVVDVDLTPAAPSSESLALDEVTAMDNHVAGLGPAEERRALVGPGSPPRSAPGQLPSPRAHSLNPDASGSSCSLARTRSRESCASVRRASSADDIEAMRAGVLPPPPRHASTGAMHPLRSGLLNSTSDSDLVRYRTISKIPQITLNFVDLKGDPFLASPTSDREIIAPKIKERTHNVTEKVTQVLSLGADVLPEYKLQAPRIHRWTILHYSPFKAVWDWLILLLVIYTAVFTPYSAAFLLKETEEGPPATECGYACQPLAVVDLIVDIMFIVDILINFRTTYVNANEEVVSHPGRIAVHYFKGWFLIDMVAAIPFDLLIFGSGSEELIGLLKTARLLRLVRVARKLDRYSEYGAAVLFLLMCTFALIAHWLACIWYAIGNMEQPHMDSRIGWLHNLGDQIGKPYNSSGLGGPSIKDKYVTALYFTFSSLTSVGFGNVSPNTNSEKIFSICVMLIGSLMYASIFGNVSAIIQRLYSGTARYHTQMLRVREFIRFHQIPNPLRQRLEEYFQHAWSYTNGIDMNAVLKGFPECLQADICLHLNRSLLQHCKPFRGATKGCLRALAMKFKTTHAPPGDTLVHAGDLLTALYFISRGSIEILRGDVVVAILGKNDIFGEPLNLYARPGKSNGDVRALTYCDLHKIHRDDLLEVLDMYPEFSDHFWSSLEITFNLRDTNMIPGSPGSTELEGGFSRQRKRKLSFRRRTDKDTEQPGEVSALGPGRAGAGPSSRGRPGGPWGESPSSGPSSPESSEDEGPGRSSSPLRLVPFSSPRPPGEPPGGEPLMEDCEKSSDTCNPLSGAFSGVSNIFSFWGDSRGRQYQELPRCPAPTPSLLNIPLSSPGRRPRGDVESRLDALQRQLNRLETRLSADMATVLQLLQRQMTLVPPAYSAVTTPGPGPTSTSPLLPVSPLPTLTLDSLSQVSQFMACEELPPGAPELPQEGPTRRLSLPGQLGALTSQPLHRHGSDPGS

Row | Compound | hERG current change (%, negative = inhibition) at 10uM
1 | CCOc1ccc(-c2cccc(NC(=O)COc3ccccc3)c2)nn1 | -8.09%
2 | CCCN1Cc2cccc(C(=O)NCCCOC(C)C)c2C1=O | 2.91%
3 | COc1ccc(/C=N/NC(=O)C(=O)N2CCCC2)cc1OC | -0.229%
4 | O=C(CSc1nc2sc3c(c2c(=O)n1-c1ccccc1)CCCC3)NCc1ccco1 | 14.9%
5 | Cc1ccc(OCC(=O)N2CCCCCCC2)cc1 | 7.87%
6 | COc1cc(OC)cc(C(=O)NCC(=O)NC(C)CCc2ccccc2)c1 (stereo not drawn) | -21.6%
7 | Cc1ccccc1NS(=O)(=O)c1ccc(C(=O)NCCCN2CCOCC2)cc1 | 9.08%
8 | N#Cc1c(N)c(C(=O)c2ccccc2)n2c1CCC2 | 18%
9 | CC(O)CNC12CC3CC(CC(C3)C1)C2 (stereo not drawn) | 12%
10 | CN(C)c1ccc(/C=C2\SC(=O)N(CCc3nnc(N)s3)C2=O)cc1 | -0.427%
11 | CCCCC(=O)Nc1ccc(NC(=S)NC(=O)c2ccco2)cc1OC | -1.48%
12 | COc1cccc(NC(=O)CN(C)C(=O)CN2C(=O)c3ccc([N+](=O)[O-])cc3C2=O)c1 | -1.51%
13 | Cn1c(N)c(N2CCN(c3ccccc3)CC2)c(=O)[nH]c1=O | 19.4%
14 | CCN1CCN(S(=O)(=O)c2ccc(C(=O)Nc3ccccc3)cc2)CC1 | -0.152%
15 | COC(=O)c1c(C)oc(C)c1S(=O)(=O)NCc1ccc(Cl)cc1Cl | -10.5%
16 | Oc1sc(C=Nc2ccc(F)cc2)c2ccccc12 | 16.7%
17 | CCCCCN(C(=O)CCC(=O)OCC(=O)c1ccc(C(C)(C)C)cc1)c1c(N)n(CCCC)c(=O)[nH]c1=O | -33.7%
18 | O=C(CSc1nnnn1-c1ccccc1)Nc1ncc(Cc2ccccc2Cl)s1 | 10.3%
19 | O=C(Nc1ccc2nc3n(c(=O)c2c1)CCCC3)c1ccc(Cl)nc1 | -6.33%
20 | CCOC(=O)c1c(NC(=O)Cn2nc(C(F)(F)F)cc2C)sc(C)c1C | 0.402%
21 | Cc1ccc(CNC(=O)CN(C(=O)N2CCN(C)CC2)S(=O)(=O)c2ccc(C)cc2)cc1 | 15.7%
22 | Cc1cccc(OCCn2nnc3ccccc32)c1C | 11.3%

Row | Compound | hERG current change (%, negative = inhibition) at 10uM
23 | COC(=O)c1cc(OC)c(OC)cc1NC(=S)N1CCN(C/C=C/c2ccccc2)CC1 | -8.96%
24 | CCCc1nnc(NC(=O)CSc2nnc(-c3ccco3)n2C)s1 | 14.6%
25 | COC(=O)C1=C(c2ccccc2)C[C@@H]2CC[C@H]1N2C(=O)N1CCC(O)CC1 | -0.795%
26 | CCOC(=O)c1cnc2ccc(C)cc2c1Sc1ccccc1C(=O)OC | -2.26%
27 | COc1ccc(-n2ncc3c(=O)n(CC(=O)N(C(C)C)C(C)C)cnc32)cc1 | 0.562%
28 | Cc1ccc(S(=O)(=O)N(Cc2cccc(F)c2)C(=O)N2CCN(C)CC2)cc1 | 33.1%
29 | CCSc1nc(N2CCOCC2)c2c(c1C#N)CCCC2 | -7.06%
30 | Cn1cc([N+](=O)[O-])c(C(=O)NNC(=O)c2ccc([N+](=O)[O-])cc2)n1 | 11.4%
31 | Cc1cc(C)n(C(=O)CNc2cccc(Cl)c2C)n1 | 13.1%
32 | O=C1Nc2ccccc2S/C1=C/NCc1ccccc1Cl | 9.93%
33 | O=C1CC(N(C(=O)c2ccco2)c2cccc(Cl)c2)C(=O)N1c1cccc(Cl)c1 (stereo not drawn) | -19.7%
34 | C=CCN(C(=O)Nc1ccccc1)C1CC(=O)N(c2ccc(OC)cc2)C1=O (stereo not drawn) | -5.09%
35 | C=CCSC1=C(C#N)C(c2ccccc2OCC)CC(=O)N1 (stereo not drawn) | -8.03%
36 | NC(=O)C1(C(N)=O)OC1c1ccccc1 (stereo not drawn) | -0.285%
37 | CN1C(C(=O)NCc2cccc(Br)c2)CC2Cn3c(nc4cc(Cl)c(Cl)cc43)C21 (stereo not drawn) | -75.8%
38 | O=C(CN1CCN(Cc2ccc(Cl)cc2)C1=O)NCCN1CCCC1 | 1.66%
39 | COc1cc(C(=O)Nc2cccc3cccnc23)cc(OC)c1OC | -22.3%
40 | CC(C)CCOP(=O)(c1ccc(N(C)C)cc1)C(O)c1ccccc1F (stereo not drawn) | -4.54%
41 | Cc1nc(NC(C)C(=O)O)c2nc(C)oc2n1 (stereo not drawn) | -17.7%
42 | CCOC(=O)N1CCN(C(=O)COC(=O)CSc2ccc([N+](=O)[O-])cc2)CC1 | -23.3%
43 | CC1=NNC(=O)C1CC(=O)N/N=C/C(Br)=C/c1ccccc1 (stereo not drawn) | 9.09%
44 | CCC(C)/C(C)=N/NC(=O)c1cn(-c2ccccc2)nc1-c1ccccc1 (stereo not drawn) | -20.5%

Row | Compound | hERG current change (%, negative = inhibition) at 10uM
45 | Cc1cc(CNC(=S)Nc2cccc(Cl)c2Cl)nn1C | 18.7%
46 | CNC(=O)CN(c1cc(OCCOC)c(Cl)cc1Cl)S(=O)(=O)c1ccc(OC)cc1 | -14.7%
47 | COc1ccc(NC(=O)CSc2ccccc2)cc1S(=O)(=O)N1CCOCC1 | -20.9%
48 | CN1CCN(C(=S)C(=O)Nc2ccc(Br)cc2)CC1 | -6.92%
49 | Cc1noc(C)c1COc1cccc(C(=O)N(C)Cc2nc3ccccc3c(=O)[nH]2)c1 | -23.5%
50 | CCCCNC(=S)NNC(=O)c1csc2c1CCC(C)C2 (stereo not drawn) | -1.23%
51 | O=C(/C=C/c1ccccc1)Nc1nnc(-c2ccco2)o1 | -6.55%
52 | O=C(Nc1cccc(Br)c1)c1ccc2nc(N3C(=O)CCC3=O)sc2c1 | 16%
53 | Cc1ccccc1CN1N=C(/C=C/c2ccccc2)CCC1=O | 6.48%
54 | O=C(CCCn1c(=O)[nH]c2ccsc2c1=O)Nc1ccc(F)cc1 | -5.81%
55 | COC1CCN(Cc2c(C(=O)N3C[C@@H](C)O[C@@H](C)C3)nc3ccc(Cl)cn23)CC1 | 17.9%
56 | CSCCC(NC(=O)C1CCCCC1)c1nc2ccccc2[nH]1 (stereo not drawn) | 2.93%
57 | O=C(CN(Cc1ccccc1)C(=O)CCl)c1cccc(Br)c1 | -23.8%
58 | Cc1cc(Cl)cc(C)c1OCCCCn1ccnc1 | -31.6%
59 | O=C(CN1C(=O)c2cccnc2Oc2ccc(Cl)cc21)Nc1ccc(F)cc1 | 5.39%
60 | CCN1CCN(Cc2ccc(NC(=O)c3cc(NC(=O)c4cncc(-c5cccs5)c4)cc(OC)c3)cc2C(F)(F)F)CC1.O=C(O)C(F)(F)F | 9.85%
61 | CCc1ccc(C(=O)NNC(=O)CCc2nc3ccccc3c(=O)[nH]2)cc1 | -7.54%
62 | COc1ccccc1N1CCN(/N=C/c2cccc(OC)c2O)CC1 | 26.6%
63 | N#Cc1ccccc1S(=O)(=O)N1CCN(C(=O)C2COc3ccccc3O2)CC1 (stereo not drawn) | -27.8%
64 | CCCC1=[N+](CC(=O)c2ccc(C)cc2)CCn2cccc21.[Br-] | 5.96%
65 | CCOC(=O)c1cc(NC(=O)CN2CCCC2)cc(C(=O)OCC)c1 | -16.2%
66 | CCOC(=O)CC(=O)NC(CC(=O)OC)c1ccc(C(C)C)cc1 (stereo not drawn) | -7.19%

Row | Compound | hERG current change (%, negative = inhibition) at 10uM
67 | O=C(NCc1ccccn1)Nc1ccc(F)c(Cl)c1 | 4.11%
68 | C#Cc1ccc([C@@H]2C=C(C(=O)NC3CC3)O[C@H](OCc3ccc(CO)cc3)C2)cc1 | -3.96%
69 | COc1ccc(OC)c(-c2csc(NC(=O)C3c4ccccc4Oc4ccccc43)n2)c1 | -5.7%
70 | O=C(Nc1cccc(S(=O)(=O)N2CCOCC2)c1)c1ccccn1 | -3.42%
71 | O=C1c2ccccc2-c2c1cccc2C(=O)N1CCCCC1 | -22.3%
72 | COc1ccc(-c2sc3ccc(N4CCOCC4)cc3c2-c2ccc(OC)c(F)c2)cc1 | 4.81%
73 | Cc1cc(Cl)ccc1NC(=O)CCC(=O)O | -0.48%
74 | Cc1ccc(NCc2nnc(SCC(N)=O)o2)c(C)c1 | 14.6%
75 | N#Cc1c(NC(=O)CSc2ccccn2)oc(-c2ccccc2)c1-c1ccccc1 | -5.2%
76 | COc1cccc2cc(C(C)=O)c(=O)oc12 | 10.6%
77 | N#CC1=C(N)N(c2ccccc2)C(c2cccc([N+](=O)[O-])c2)C1(C#N)C#N (stereo not drawn) | -29.6%
78 | Cc1nc(-c2ccc(F)cc2)c(CC(=O)N2CCN(S(=O)(=O)c3ccc(F)cc3)CC2)s1 | -24.1%
79 | Nc1nc(NCc2ccc(Cl)cc2)nc(NCCO)c1[N+](=O)[O-] | -13.4%
80 | Cc1ccc(CSC(Nc2ccc(F)cc2)=C(C#N)C#N)cc1 | 25.4%
81 | Cc1cc(C)cc(OC(=O)CN2C(=O)c3ccccc3C2=O)c1 | 8.9%
82 | COc1ccc(C)cc1NC(=O)CN1C(=O)C2CC=CCC2C1=O (stereo not drawn) | 1.56%
83 | CCS(=O)(=O)c1nc(S(=O)(=O)c2ccc(Cl)cc2)c(NCc2ccco2)s1 | 16.8%
84 | Cc1cc(NS(=O)(=O)c2ccc(NC(=O)c3ccccc3C)cc2)no1 | 17.5%
85 | Cc1ccc(S(=O)(=O)N2CCC(=O)N(C(COCc3ccc(Cl)c(Cl)c3)Cc3ccccc3)CC2)cc1 (stereo not drawn) | 10.2%
86 | CC(/C=C1\SC(=S)N(CCCC(=O)Nc2ccc(C(=O)O)cc2)C1=O)=C\c1ccccc1 | 1.57%
87 | CC(C)CCN1CCNC(=O)C1CC(=O)N(C)CCCN1CCOCC1 (stereo not drawn) | 25.7%
